From paper PMC4336329 (PLoS ONE, 2015)
In all, about 310,000 compounds went through this assay and about 2,200 (0.71%) showed an effect of 50% or more. Effects have a minus sign here. The list shows a part of the results.

What follows are compounds tested against human ether-à-go-go-related gene (hERG) potassium channel (human, UniProt Q12809) (assay: primary screen, population patch clamp on CHO cells stably expressing hERG).
human ether-à-go-go-related gene (hERG) potassium channel, sequence (Q12809 whole entry, looked up): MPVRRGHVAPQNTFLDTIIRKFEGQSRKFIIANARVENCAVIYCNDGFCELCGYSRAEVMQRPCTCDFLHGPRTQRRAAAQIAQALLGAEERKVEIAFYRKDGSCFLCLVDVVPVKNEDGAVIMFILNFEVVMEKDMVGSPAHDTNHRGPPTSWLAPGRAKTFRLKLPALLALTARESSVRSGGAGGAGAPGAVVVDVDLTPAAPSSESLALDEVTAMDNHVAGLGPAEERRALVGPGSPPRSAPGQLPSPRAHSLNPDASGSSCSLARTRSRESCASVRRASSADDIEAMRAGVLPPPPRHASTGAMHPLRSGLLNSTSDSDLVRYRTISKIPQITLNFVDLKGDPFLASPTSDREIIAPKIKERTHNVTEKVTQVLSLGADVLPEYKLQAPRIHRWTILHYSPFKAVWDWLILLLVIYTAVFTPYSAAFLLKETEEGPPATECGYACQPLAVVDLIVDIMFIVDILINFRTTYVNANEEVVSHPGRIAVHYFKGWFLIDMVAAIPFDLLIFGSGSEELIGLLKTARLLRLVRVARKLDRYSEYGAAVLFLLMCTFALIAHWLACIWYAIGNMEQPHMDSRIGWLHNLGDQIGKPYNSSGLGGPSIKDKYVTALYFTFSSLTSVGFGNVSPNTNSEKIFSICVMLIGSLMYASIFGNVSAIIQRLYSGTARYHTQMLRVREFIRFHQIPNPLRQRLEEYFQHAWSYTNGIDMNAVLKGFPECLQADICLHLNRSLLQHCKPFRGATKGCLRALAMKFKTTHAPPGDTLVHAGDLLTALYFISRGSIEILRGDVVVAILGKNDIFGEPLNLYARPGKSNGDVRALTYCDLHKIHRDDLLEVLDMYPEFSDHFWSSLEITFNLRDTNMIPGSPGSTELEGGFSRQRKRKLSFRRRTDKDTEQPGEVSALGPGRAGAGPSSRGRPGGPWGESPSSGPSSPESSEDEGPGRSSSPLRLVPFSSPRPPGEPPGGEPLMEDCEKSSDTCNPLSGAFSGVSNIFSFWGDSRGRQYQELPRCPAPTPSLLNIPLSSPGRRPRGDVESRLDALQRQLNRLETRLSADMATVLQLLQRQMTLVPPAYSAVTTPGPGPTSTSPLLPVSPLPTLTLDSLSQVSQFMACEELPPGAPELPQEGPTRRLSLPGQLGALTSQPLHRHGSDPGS

Compared with `CCN(Cc1ccccc1)C1CCN(Cc2ccc(SC)cc2)CC1.O=C(O)C(=O)O`, `CN(Cc1ccccc1)c1ccc([N+](=O)[O-])cc1C(=O)O` is higher in “hERG current change (%, negative = inhibition) at 1uM” value: -23.9% for the first, 15.1% for the second.

Compared with `O=C(CSc1ccc2ccccc2c1Br)Nc1cccc(S(=O)(=O)NC2=NCCCCC2)c1`, `O=C(CNCc1ccccc1Cl)Nc1ccc(C(=O)N2CCCCC2)cc1.O=C(O)C(=O)O` is higher in “hERG current change (%, negative = inhibition) at 1uM” value: 8.54% for the first, 15.5% for the second.

First: CC(C)(C)C(O)C(Oc1ccc(Cl)cc1)n1cncn1 (centres unmarked)
Second: COc1ccc(-c2cc(C(=O)NCC(C)C)no2)cc1
The “hERG current change (%, negative = inhibition) at 1uM” value of the first is higher: 6.26% for the first, -5.29% for the second.

First: CN(C)CCNC(=O)C(=O)NCC1OCCN1S(=O)(=O)c1ccc([N+](=O)[O-])cc1 (centres unmarked)
Second: O=C(NCCc1ccccc1)C(=O)NCC1OCCN1S(=O)(=O)c1cc(F)ccc1F (centres unmarked)
The “hERG current change (%, negative = inhibition) at 1uM” value of the first is higher: 10.5% for the first, -2.25% for the second.

Compared with `COC(=O)Nc1ccc([N+](=O)[O-])cc1OC`, `COc1ccc(NC(=O)Nc2cccs2)cc1OC` is higher in “hERG current change (%, negative = inhibition) at 1uM” value: 6.79% for the first, 12.3% for the second.

First: CCCc1nn2c(=O)cc(CSCC(=O)Nc3cccc(OC)c3)nc2s1
Second: Cc1nc(Cl)c(C(=O)Nc2cccc(F)c2)c(C)c1Cl
The “hERG current change (%, negative = inhibition) at 1uM” value of the first is higher: 14.5% for the first, -4.47% for the second.

First: CCCCN(CCCC)CCCN1CC(=O)N2[C@@H](Cc3c([nH]c4ccccc34)C2(C)C)C1=O
Second: CCc1cc2cc(C)ccc2nc1SCC(=O)NC1CCCC1
The “hERG current change (%, negative = inhibition) at 1uM” value of the first is lower: -42.9% for the first, -4.96% for the second.

First: N#Cc1c(-c2ccc(F)cc2)c2c([nH]c1=O)-c1ccccc1OC2
Second: Cc1cc(C)cc(C(=O)NC(=S)Nc2ccc(-c3cc4ccccc4oc3=O)cc2)c1
The “hERG current change (%, negative = inhibition) at 1uM” value of the first is higher: 14% for the first, 8.98% for the second.

Compared with `COc1ccc(-c2ncc(CN3CCC(CO)(Cc4cccc(OC)c4)CC3)cn2)cc1`, `CCOC(=O)C1(Cc2cccc(OC)c2)CCN(Cc2cccc3c2OCO3)CC1` is lower in “hERG current change (%, negative = inhibition) at 1uM” value: 10.4% for the first, -0.93% for the second.

Compared with `Cc1noc(C(F)(F)F)c1C(=O)NNC(=O)c1ccccc1`, `O=C(NCC1CCCO1)c1ccc2c(c1)C(=O)N(c1cccc([N+](=O)[O-])c1)C2=O` (centres unmarked) is lower in “hERG current change (%, negative = inhibition) at 1uM” value: 15.2% for the first, 15% for the second.

Compared with `O=C(O)CCn1ccc2cc(S(=O)(=O)N3CCCCCC3)ccc21`, `CCCCC(C(=O)NC1CCCC1)N(C(=O)c1snc(C(N)=O)c1N)c1ccc(C)cc1` (centres unmarked) is higher in “hERG current change (%, negative = inhibition) at 1uM” value: 3.69% for the first, 20.4% for the second.

In the case of `CCOC(=O)c1c(C2CC2)csc1NC(=O)COC(=O)c1cc(OC)c(OC)cc1[N+](=O)[O-]`, the “hERG current change (%, negative = inhibition) at 1uM” value is reported as 15.9%.
